In patent US20170210802A1 (INNATE PHARMA, published 2017) one finds Kd, koff and kon data, which are given here for 3 molecules.

The target of assay [1] is T1, human FcRn (recombinant, Example 10) (human, UniProt P55899 fragment; P61769 fragment, limits assumed).
T1 construct: also called recombinant FcRn proteins
The experiment in a line: SPR, recombinant FcRn immobilised on CM5, SCK/Two state reaction. On the technique in general: SPR reads the build-up and loss of mass on a sensor chip optically.

Assay [2] has as its target T2, Human NKp46 recombinant proteins (human, UniProt O76036 22-258, limits assumed).
T2 construct: also called recombinant human NKp46
T2 sequence (looked up): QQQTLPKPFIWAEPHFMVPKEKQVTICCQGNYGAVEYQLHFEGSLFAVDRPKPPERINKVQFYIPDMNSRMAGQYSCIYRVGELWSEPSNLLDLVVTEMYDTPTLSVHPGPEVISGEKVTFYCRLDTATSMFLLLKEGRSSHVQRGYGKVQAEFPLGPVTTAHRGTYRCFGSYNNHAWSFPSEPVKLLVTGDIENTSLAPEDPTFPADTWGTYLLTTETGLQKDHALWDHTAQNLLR
In words: SPR (Biacore T100), antibody captured on Protein-A chip, recombinant human NKp46 injected (6.25-400 nM), 1:1 kinetic model. The procedure:
SPR measurements were performed on a Biacore T100 apparatus (Biacore GE Healthcare) at 25° C. In all Biacore experiments HBS-EP+(Biacore GE Healthcare) and NaOH 10 mM served as running buffer and regeneration buffer respectively. Sensorgrams were analyzed with Biacore T100 Evaluation software. Protein-A was purchase from (GE Healthcare). Human NKp46 recombinant proteins were cloned, produced and purified at Innate Pharma.
Protein-A proteins were immobilized covalently to carboxyl groups in the dextran layer on a Sensor Chip CM5. The chip surface was activated with EDC/NHS (N-ethyl-N′-(3-dimethylaminopropyl) carbodiimidehydrochloride and N-hydroxysuccinimide (Biacore GE Healthcare)). Protein-A was diluted to 10 μg/ml in coupling buffer (10 mM acetate, pH 5.6) and injected until the appropriate immobilization level was reached (i.e. 2000 RU). Deactivation of the remaining activated groups was performed using 100 mM ethanolamine pH 8 (Biacore GE Healthcare).
Monovalent affinity study was done following a regular Capture-Kinetic protocol recommended by the manufacturer (Biacore GE Healthcare kinetic wizard). Seven serial dilutions of human NKp46 recombinant proteins, ranging from 6.25 to 400 nM were sequentially injected over the captured Bi-Specific antibodies and allowed to dissociate for 10 min before regeneration. The entire sensorgram sets were fitted using the 1:1 kinetic binding model.

Assay [3] has as its target T1, human FcRn (recombinant, Example 10). In words: SPR, recombinant FcRn immobilised on CM5, Steady State.

T1 sequence (P55899 24-297 limits assumed, form in doubt, chain 1 of 2): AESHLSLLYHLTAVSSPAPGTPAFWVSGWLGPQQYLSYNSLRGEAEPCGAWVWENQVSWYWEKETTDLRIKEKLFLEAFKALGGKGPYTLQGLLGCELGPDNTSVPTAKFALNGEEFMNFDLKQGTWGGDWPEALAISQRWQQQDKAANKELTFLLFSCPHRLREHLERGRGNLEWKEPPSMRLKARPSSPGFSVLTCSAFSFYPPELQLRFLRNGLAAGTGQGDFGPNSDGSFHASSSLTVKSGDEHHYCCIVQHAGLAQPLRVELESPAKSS
T1 sequence (P61769 21-119 limits assumed, form in doubt, chain 2 of 2, further chain): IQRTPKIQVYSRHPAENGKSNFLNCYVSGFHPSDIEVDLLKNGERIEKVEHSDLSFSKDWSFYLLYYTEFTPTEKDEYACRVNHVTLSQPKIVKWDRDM

B1: CD19-F14-NKp46-3 (bispecific antibody, human IgG1, kappa)
chain 1: IQLTQSPASLAVSLGQRATISCKASQSVDYDGDSYLNWYQQIPGQPPKLLIYDASNLVSGIPPRFSGSGSGTDFTLNIHPVEKVDAATYHCQQSTEDPWTFGGGTKLEIKRTVAAPSVFIFPPSDEQLKSGTASVVCLLNNFYPREAKVQWKVDNALQSGNSQESVTEQDSKDSTYSLSSTLTLSKADYEKHKVYACEVTHQGLSSPVTKSFNRGE[… human IgG1 Fc with N297S (EU numbers) …]
chain 2: QVQLQQSGAELVRPGSSVKISCKASGYAFSSYWMNWVKQRPGQGLEWIGQIWPGDGDTNYNGKFKGKATLTADESSSTAYMQLSSLASEDSAVYFCARRETTTVGRYYYAMDYWGQGTTVTVSSASTKGPSVFPLAPSSKSTSGGTAALGCLVKDYFPEPVTVSWNSGALTSGVHTFPAVLQSSGLYSLSSVVTVPSSSLGTQTYICNVNHKPSNTKVDKRV[… human IgG1 Fc with N297S (EU numbers) …]TGSEVQLQQSGPELVKPGASVKISCKTSGYTFTEYTMHWVKQSHGKSLEWIGGISPNIGGTSYNQKFKGKATLTVDKSSSTAYMELRSLTSEDSAVYYCARRGGSFDYWGQGTTLTVSSVEGGSGGSGGSGGSGGVDDIVMTQSPATLSVTPGDRVSLSCRASQSISDYLHWYQQKSHESPRLLIKYASQSISGIPSRFSGSGSGSDFTLSINSVEPEDVGVYYCQNGHSFPLTFGAGTKLELK
notes: also called Format 14 (F14); copies: 1 + 1
With B1, the Kd in assay [1] came out at 14 nM. For the same molecule, in assay [2], the dissociation constant (Kd) was 62 nM, the koff was 0.00546 s⁻¹ and the kon amounted to 88300 M⁻¹ s⁻¹.

B2: CD19-F10A-NKp46-3 (bispecific antibody, human IgG1, kappa)
chain 1: DIQLTQSPASLAVSLGQRATISCKASQSVDYDGDSYLNWYQQIPGQPPKLLIYDASNLVSGIPPRFSGSGSGTDFTLNIHPVEKVDAATYHCQQSTEDPWTFGGGTKLEIKRTVAAPSVFIFPPSDEQLKSGTASVVCLLNNFYPREAKVQWKVDNALQSGNSQESVTEQDSKDSTYSLSSTLTLSKADYEKHKVYACEVTHQGLSSPVTKSFNRGEC
chain 2: QVQLQQSGAELVRPGSSVKISCKASGYAFSSYWMNWVKQRPGQGLEWIGQIWPGDGDTNYNGKFKGKATLTADESSSTAYMQLSSLASEDSAVYFCARRETTTVGRYYYAMDYWGQGTTVTVSSASTKGPSVFPLAPSSKSTSGGTAALGCLVKDYFPEPVTVSWNSGALTSGVHTFPAVLQSSGLYSLSSVVTVPSSSLGTQTYICNVNHKPSNTKVDKRV[… human IgG1 Fc with N297S (EU numbers) …]GGGSGGGGSGGGGSGQPREPQVYTLPPSREEMTKNQVSLTCLVKGFYPSDIAVEWESNGQPENNYKTTPPVLDSDGSFFLYSKLTVDKSRWQQGNVFSCSVMHEALHNHYTQKSLSLSPGSTGSEVQLQQSGPELVKPGASVKISCKTSGYTFTEYTMHWVKQSHGKSLEWIGGISPNIGGTSYNQKFKGKATLTVDKSSSTAYMELRSLTSEDSAVYYCARRGGSFDYWGQGTTLTVSSVEGGSGGSGGSGGSGGVDDIVMTQSPATLSVTPGDRVSLSCRASQSISDYLHWYQQKSHESPRLLIKYASQSISGIPSRFSGSGSGSDFTLSINSVEPEDVGVYYCQNGHSFPLTFGAGTKLELK
notes: Heterodimer, monomeric Fc with tandem CH3, N297S, wild-type hinge cysteines (variant A); also called Format 10 (F10)
Regarding B2, the dissociation constant Kd in assay [3] is 433 nM. In assay [2], the Kd was 29 nM, the koff was 0.00754 s⁻¹ and the association rate constant (kon) was 261000 M⁻¹ s⁻¹.

B3: CD19-F13-NKp46-3 (bispecific antibody, human IgG1, kappa)
chain 1: DIQLTQSPASLAVSLGQRATISCKASQSVDYDGDSYLNWYQQIPGQPPKLLIYDASNLVSGIPPRFSGSGSGTDFTLNIHPVEKVDAATYHCQQSTEDPWTFGGGTKLEIKRTVAAPSVFIFPPSDEQLKSGTASVVCLLNNFYPREAKVQWKVDNALQSGNSQESVTEQDSKDSTYSLSSTLTLSKADYEKHKVYACEVTHQGLSSPVTKSFNRGE[… human IgG1 Fc …]
chain 2: QVQLQQSGAELVRPGSSVKISCKASGYAFSSYWMNWVKQRPGQGLEWIGQIWPGDGDTNYNGKFKGKATLTADESSSTAYMQLSSLASEDSAVYFCARRETTTVGRYYYAMDYWGQGTTVTVSSASTKGPSVFPLAPSSKSTSGGTAALGCLVKDYFPEPVTVSWNSGALTSGVHTFPAVLQSSGLYSLSSVVTVPSSSLGTQTYICNVNHKPSNTKVDKRV[… human IgG1 Fc …]TGSEVQLQQSGPELVKPGASVKISCKTSGYTFTEYTMHWVKQSHGKSLEWIGGISPNIGGTSYNQKFKGKATLTVDKSSSTAYMELRSLTSEDSAVYYCARRGGSFDYWGQGTTLTVSSVEGGSGGSGGSGGSGGVDDIVMTQSPATLSVTPGDRVSLSCRASQSISDYLHWYQQKSHESPRLLIKYASQSISGIPSRFSGSGSGSDFTLSINSVEPEDVGVYYCQNGHSFPLTFGAGTKLELK
notes: Heterodimer with dimeric wild-type Fc domain; also called Format 13 (F13); copies: 1 + 1
Consider B3, for which, in assay [2], the dissociation constant Kd came to 68 nM, the koff was determined as 0.00565 s⁻¹ and the association rate constant (kon) was found to be 83000 M⁻¹ s⁻¹.

In general, Kd refers to the free concentration of one partner at which half of the binding sites on the other are occupied at equilibrium, for simple one-to-one binding. In general, koff refers to a measure of how fast the partners let go of each other. What is called kon is a measure of how fast the partners come together.
